First the molecules themselves.
B4: recombinant human PD-1 (Example 2) (receptor)
chain: not shown
modifications: biotinylated in the PD-L1 ELISA (site not stated)
notes: Biotinylated form in the ELISA on PD-L1; recombinant human PD-1 (100 nM) in the Biacore assay on PD-L2; also called biotinylated recombinant human PD-1; PD-1 recombinant protein

Assay [1] addresses T1, CD132 receptor (Sinobiological 10555-H08B) (UniProt P31785 23-254).
T1 construct: Bought protein injected over the CD127/IL-7 complex in Biacore; also called common γ chain
T1 sequence (looked up): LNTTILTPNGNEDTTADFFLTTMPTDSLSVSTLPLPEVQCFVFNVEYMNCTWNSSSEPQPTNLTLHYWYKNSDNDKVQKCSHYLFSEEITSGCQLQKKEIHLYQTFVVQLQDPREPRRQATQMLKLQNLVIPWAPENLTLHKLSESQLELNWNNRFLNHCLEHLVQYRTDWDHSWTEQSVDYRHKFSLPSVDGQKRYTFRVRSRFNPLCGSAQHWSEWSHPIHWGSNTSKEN
Nature of the assay: Biacore, CD132 injected over the CD127/IL-7 complex on the chip. On the procedure: (§1) CD127 (Sinobiological, 10975-H03H-50) was immobilized onto a CM5 biochip at 20 μg/ml and the indicated protein were added at serial concentrations (0.34; 1.03; 3.11; 9.3; 28 nM).

In assay [2] the target is T2, Recombinant hPD1-His (Sino Biologicals, reference 10377-H08H) (human, UniProt Q15116 part only).
T2 construct: also called human recombinant PD-1 (rPD1) protein; PD-1 receptor
Nature of the assay: ELISA: human recombinant PD-1 coated, anti-human Fc peroxidase, TMB [FOLLOWING) B]. On the procedure: Revelation was performed with an anti-human Fc antibody coupled to peroxidase. Colorimetry was determined at 450 nm using TMB substrate. […] C.
Background: In an ELISA, binding on a coated surface is turned into a signal by an enzyme label.

The target in assay [3] is T3, CD127 (Sinobiological, 10975-H03H-50) (UniProt P16871 21-239).
T3 construct: Bought protein, immobilised on the CM5 chip for Biacore; also called CD127 receptor; IL-7Rα
T3 sequence (looked up): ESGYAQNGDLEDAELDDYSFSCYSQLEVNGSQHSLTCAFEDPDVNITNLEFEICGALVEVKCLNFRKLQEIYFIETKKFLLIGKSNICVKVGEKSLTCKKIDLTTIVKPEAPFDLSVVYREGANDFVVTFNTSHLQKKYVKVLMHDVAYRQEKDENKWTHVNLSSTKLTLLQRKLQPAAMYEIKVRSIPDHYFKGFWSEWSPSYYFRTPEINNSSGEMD
Nature of the assay: Biacore, CD127 immobilised on CM5 chip; bivalent model. The protocol:
as §1
For orientation: In SPR one partner is held on a chip, and binding of the other changes the refractive index at the surface.

The target of assay [4] is B4. Nature of the assay: competition ELISA: PD-L1 coated, antibody mixed with biotinylated PD-1 at 0.6 ug/mL, streptavidin peroxidase; blocked ligand PD-L1.
For another assay, the target named is T4, Human recombinant PD-L2 (human, UniProt Q9BQ51 20-219, limits assumed).
T4 construct: Immobilised on the CM5 biochip; also called human PD-L2 recombinant protein
T4 sequence (looked up): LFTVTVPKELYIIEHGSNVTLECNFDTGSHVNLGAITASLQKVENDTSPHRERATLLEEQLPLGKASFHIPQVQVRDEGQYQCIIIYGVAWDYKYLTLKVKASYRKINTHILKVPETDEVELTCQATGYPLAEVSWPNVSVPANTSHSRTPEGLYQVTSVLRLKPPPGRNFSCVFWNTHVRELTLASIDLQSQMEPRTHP
Nature of the assay: Biacore: PD-L2 immobilised on a CM5 chip, PD-1 at 100 nM. The source says:
Data are represented in % of relative response of interaction as measured by Biacore: 100%=PD-1 relative response.
Chimeric forms of PD-1 antibodies were used in this test. […] Data are represented in % of relative response of interaction as measured by Biacore: 100%=PD-1 relative response. Chimeric forms of the PD-1 antibodies were used in this experiment.

In general, EC50 (read off the curve) refers to the midpoint of the concentration-response curve.

B1: anti-PD1VH-IL7, chimeric form (other)
heavy: QIQLVQSGPELKKPGETVKISCKASGYTFTHYGMNWVKQAPGKGLKWMGWINTNTGEPTYAEEFKGRFAFSLETSASAAFLQINNLKNEDTATYFCAKEREPGMDSWGQGTSVTVSSASTKGPSVFPLAPCSRSTSESTAALGCLVKDYFPEPVTVSWNSGALTSGVHTFPAVLQSSGLYSLSSVVTVPSSSLGTKTYTCNVDHKPSNTKVDKRV[here human IgG4 Fc with S228P L445P (EU numbers) without letters]GGGGSGGGGSGGGGSDCDIEGKDGKQYESVLMVSIDQLLDSMKEIGSNCLNNEFNFFKRHICDANKEGMFLFRAARKLRQFLKMNSTGDFDLHLLKVSEGTTILLNCTGQVKGRKPAALGEAQPTKSLEENKSLKEQKKLNDLCFLKRLLQEIKTCWNKILMGTKEH
light: DVLLTQTPLSLPVSLGDQASISCRSSQNIVHANGNTYLEWYLQKPGQSPKLLIYKVSNRFSGVPDRFSGSGSGTDFTLKITRVEAEDLGVYYCFQGSHVPNTFGGGTKLEIKRTVAAPSVFIFPPSDEQLKSGTASVVCLLNNFYPREAKVQWKVDNALQSGNSQESVTEQDSKDSTYSLSSTLTLSKADYEKHKVYACEVTHQGLSSPVTKSFNRGEC
notes: Antibody-cytokine fusion; also called Bicki anti-PD1VH-IL7; chimeric Bicki
As for B1, the Kd in assay [1] worked out at 323 nM; in assay [3] it was 0.9 nM. Further, in assay [2], the “EC50 (read off the curve)” value was roughly 6 ng/mL. Moreover, the “IC50 (read off the curve)” value in assay [4] is roughly 3 nM.

B2: anti-PD1VHandVL-IL7, chimeric Bicki (other, not shown: small tags and cut ends)
heavy: QIQLVQSGPELKKPGETVKISCKASGYTFTHYGMNWVKQAPGKGLKWMGWINTNTGEPTYAEEFKGRFAFSLETSASAAFLQINNLKNEDTATYFCAKEREPGMDSWGQGTSVTVSSASTKGPSVFPLAPCSRSTSESTAALGCLVKDYFPEPVTVSWNSGALTSGVHTFPAVLQSSGLYSLSSVVTVPSSSLGTKTYTCNVDHKPSNTKVDKRV[here human IgG4 Fc with S228P L445P (EU numbers) without letters]DCDIEGKDGKQYESVLMVSIDQLLDSMKEIGSNCLNNEFNFFKRHICDANKEGMFLFRAARKLRQFLKMNSTGDFDLHLLKVSEGTTILLNCTGQVKGRKPAALGEAQPTKSLEENKSLKEQKKLNDLCFLKRLLQEIKTCWNKILMGTKEH
light: DVLLTQTPLSLPVSLGDQASISCRSSQNIVHANGNTYLEWYLQKPGQSPKLLIYKVSNRFSGVPDRFSGSGSGTDFTLKITRVEAEDLGVYYCFQGSHVPNTFGGGTKLEIKRTVAAPSVFIFPPSDEQLKSGTASVVCLLNNFYPREAKVQWKVDNALQSGNSQESVTEQDSKDSTYSLSSTLTLSKADYEKHKVYACEVTHQGLSSPVTKSFNRGECDCDIEGKDGKQYESVLMVSIDQLLDSMKEIGSNCLNNEFNFFKRHICDANKEGMFLFRAARKLRQFLKMNSTGDFDLHLLKVSEGTTILLNCTGQVKGRKPAALGEAQPTKSLEENKSLKEQKKLNDLCFLKRLLQEIKTCWNKILMGTKEH
notes: also called chimeric anti-PD1 antibody fused to IL7 on its heavy and light chain
Turning to B2, the “EC50 (read off the curve)” value in assay [2] is roughly 3 ng/mL.

B3: anti-PD1VL-IL7, chimeric form (other)
heavy: QIQLVQSGPELKKPGETVKISCKASGYTFTHYGMNWVKQAPGKGLKWMGWINTNTGEPTYAEEFKGRFAFSLETSASAAFLQINNLKNEDTATYFCAKEREPGMDSWGQGTSVTVSSASTKGPSVFPLAPCSRSTSESTAALGCLVKDYFPEPVTVSWNSGALTSGVHTFPAVLQSSGLYSLSSVVTVPSSSLGTKTYTCNVDHKPSNTKVDKRV[here human IgG4 Fc with S228P L445P (EU numbers) without letters]
light: DVLLTQTPLSLPVSLGDQASISCRSSQNIVHANGNTYLEWYLQKPGQSPKLLIYKVSNRFSGVPDRFSGSGSGTDFTLKITRVEAEDLGVYYCFQGSHVPNTFGGGTKLEIKRTVAAPSVFIFPPSDEQLKSGTASVVCLLNNFYPREAKVQWKVDNALQSGNSQESVTEQDSKDSTYSLSSTLTLSKADYEKHKVYACEVTHQGLSSPVTKSFNRGECGGGGSGGGGSGGGGSDCDIEGKDGKQYESVLMVSIDQLLDSMKEIGSNCLNNEFNFFKRHICDANKEGMFLFRAARKLRQFLKMNSTGDFDLHLLKVSEGTTILLNCTGQVKGRKPAALGEAQPTKSLEENKSLKEQKKLNDLCFLKRLLQEIKTCWNKILMGTKEH
notes: Antibody-cytokine fusion, IL-7 on the light chain; also called Bicki anti-PD1VL-IL7
On to B3, for which the Kd was 470 nM in assay [1] and 1.2 nM in assay [3]. For the same molecule, the “EC50 (read off the curve)” value in assay [2] was roughly 5 ng/mL.

For the molecule B4, the binding result with Human recombinant PD-L2 was “binds”.

The values above are taken from patent US20230071889A1 (OSE IMMUNOTHERAPEUTICS, published 2023).
